Variants at the background level are over-represented here.
B1: TPR 5TU (parent)
chain: GGAUCUUCUCGAUCUAACAAAAAAGACAAAUCUGCCACAAAGCUUGAGAGCAUCUUCGGAUGCAGAGGCGGCAGCCUUCGGUGGCGCGAUAGCGCCAACGUUCUCAACUAUGACACGCAAAACGCGUGCUCCGUUGAAUGGAGUUUAUCAUG

Variants of: B1
Experiment: polymerase ribozyme fitness, log enrichment relative to wild type (log ratio); higher = more active; in vitro selection for triplet polymerase activity
Summary of the method: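 Input and output libraries were sequenced on Illumina after a single in vitro selection round, run in triplicate on PCR-built, transcribed mutant libraries of each subunit of a heterodimeric triplet polymerase ribozyme. Selection annealed libraries to a biotinylated primer, the partner subunit and triplets, incubated them frozen at −7 °C, then gel-excised extended constructs for streptavidin-bead capture and RT-PCR. Genotypes with ≥10 input reads and ≥1 read per output were kept. Fitness is the logarithm, taken in base 2, of genotype enrichment divided by wild-type enrichment, using inverse-variance-weighted replicate averages.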

| Variant | polymerase ribozyme fitness (log ratio) |
| --- | --- |
| C8G G11U A19U G83A G88U G94A A107G | ≤ -4.2 |
| U7G C27A G42A C76A A89U G92C | ≤ -4.2 |
| C8G A30U A47G G80U A91U C99U A110G U145A | ≤ -4.2 |
| C8U A19U G50C A91U C95G C105U C131U | ≤ -4.2 |
| U7C G11C A28U U78G A91U | ≤ -4.2 |
| U7G A19C A30U G71C G84A C96G C118G | ≤ -4.2 |
| C8A C54A C87U U127G | ≤ -4.2 |
| C8A U13G U33A G124A U146C | ≤ -4.2 |
| C8A G48A C54A G86A | ≤ -4.2 |
| C8A A41G | -4.12 |
| U7G G83C G88U G152A | ≤ -4.2 |
| C8U A26G C35U C57U A66U G86A C114U | ≤ -4.2 |
| U9A A17U C35A G58A G80U A91G A150U | ≤ -4.2 |
| C8G U9C C14G U44G G50A | ≤ -4.2 |
| C8A C27U U44G A49C C72G C79A G92A G143U | ≤ -4.2 |
| C8U A41C U44G G81C G92U C93G | ≤ -4.2 |
| C8U A17G G84U G133C | ≤ -4.2 |
| C8A G48A G92C | ≤ -4.2 |
| C8A A16G C36G A52C C87G A91G C95A A98U G126A G143A U146C | ≤ -4.2 |
| C8G A21G A41U U44G C87A C108U C149U | ≤ -4.2 |
| U9A A66G C75A G84A U146G | ≤ -4.2 |

| Variant | polymerase ribozyme fitness (log ratio) |
| --- | --- |
| C8A G71C G92C U104G G152U | ≤ -4.2 |
| U9A C14U G83A U135G | ≤ -4.2 |
| C8U G83C C125U | ≤ -4.2 |
| C8U G48C G58U A66C G81A U151A | ≤ -4.2 |
| C8A C93G | ≤ -4.2 |
| C8A U9A A41U C43G C85U G88U A119C C125U | ≤ -4.2 |
| U9A C76U C85U | ≤ -4.2 |
| C8A G83U C105G C131U A142C | ≤ -4.2 |
| C8U A29U G58C G94A C105G | ≤ -4.2 |
| C8G C85G C95A A107G U109A A137U A138G | ≤ -4.2 |
| U7C U45G G74A C85U | ≤ -4.2 |
| C8U G86A C87A A89G C114U | ≤ -4.2 |
| C8A C51U A73C C87A C103G U139C | ≤ -4.2 |
| C8A A91C G143A U145G | ≤ -4.2 |
| U7G C35G A40U C57G C85U A97G U102C A106U | ≤ -4.2 |
| C8U A16C G46A A52G C85U C93A | ≤ -4.2 |
| C8U U56A A64U A91U G128U A150C | ≤ -4.2 |
| U9A A20C A23U U31G A47C G50U G58A C85U A91C | ≤ -4.2 |
| U7C U9G C54U A107C U127A | ≤ -4.2 |
| C8A A49C G80C G92A A106U A113C C118U G141U G143U C149G | ≤ -4.2 |
| U7C G117C G136A G143U | ≤ -4.2 |

| Variant | polymerase ribozyme fitness (log ratio) |
| --- | --- |
| C8U A28C A41C A49C U61G C87G G133U A142C | ≤ -4.2 |
| U9A C32A U55G G88U U109A | ≤ -4.2 |
| U7G C14U C85A A91G C103A C116G A121U C131U G133C C149G | ≤ -4.2 |
| C8U A39G U53C G74C | ≤ -4.2 |
| U7G A28G G59C C79U A89G C95U U102C A106U | ≤ -4.2 |
| C8A A19C C51A G74A G84A C96G C103U A115U U134G U139G | ≤ -4.2 |
| U7C U9G A17U A26G G84A C116A | -3.98 |
| C8A G25U A49G G68C G92U U151C | ≤ -4.2 |
| C8A C27G U33A C72G U102G A142G | ≤ -4.2 |
| C8A C10U C75A G86A A98U A138C | ≤ -4.2 |
| C8G A21C C93A U102A C108G G141U | ≤ -4.2 |
| U7C U56A A91U A106U C132U | -3.92 |
| C8A A12U C36A | ≤ -4.2 |
| U9A C76U C85U C132U G133C | ≤ -4.2 |
| U7G C69G C93A | ≤ -4.2 |
| C8U C51U G84C | ≤ -4.2 |
| C8G U13C A28U U45G G58A G126A | ≤ -4.2 |
| U7G A40U C43G A91U | ≤ -4.2 |
| C8U U9G G70A C76A C87G A89C | ≤ -4.2 |
| U7C C8A U61A G81C A115G A119U U146G | ≤ -4.2 |
| C8G A49U C85A G126U U139G | ≤ -4.2 |

| Variant | polymerase ribozyme fitness (log ratio) |
| --- | --- |
| C8U A47C C75U C87A A119U C132G G136U | ≤ -4.2 |
| C8U A142G C149G | ≤ -4.2 |
| U7C U56A G94A A98G | -3.41 |
| C8G U53A | ≤ -4.2 |
| U7G A19G A23U G25C A122G | ≤ -4.2 |
| U7C C51U C57U A97G A137U G141U | ≤ -4.2 |
| C8G C38A C54A G62A C149U | ≤ -4.2 |
| C8A A16C U55A G81A C96U | ≤ -4.2 |
| C8A U13A A40C G62A G71U G92U | ≤ -4.2 |
| C8A A29C C36A U55A A66U G86A C87G | ≤ -4.2 |
| C8G A142C | ≤ -4.2 |
| C8A A22C A28U A29C C87G U109C G140A | ≤ -4.2 |
| U7G A30U C43U U53A C93A | ≤ -4.2 |
| U7C A49G G59C C79A C131U U139A U146G | ≤ -4.2 |
| C8U C38G U56G G88U A89U C93U U130G | ≤ -4.2 |
| C8U A12G A28C C38U C57G C95U | ≤ -4.2 |
| C8U U53G U56G G94C A98G U101A | ≤ -4.2 |
| C8A G11A G50C U82A G83C | ≤ -4.2 |
| U9A A19C A41C C57U C96U | ≤ -4.2 |
| C8A A26G G42C G86U | ≤ -4.2 |
